# Screen size: about 310,000 compounds; about 2,200 (0.71%) showed an effect of 50% or more. Effects have a minus sign here. The list shows a part of the results.
# Molecular target: human ether-à-go-go-related gene (hERG) potassium channel (human, UniProt Q12809)
# Assay: primary screen, population patch clamp on CHO cells stably expressing hERG
# Sequence of human ether-à-go-go-related gene (hERG) potassium channel (Q12809 whole entry, looked up): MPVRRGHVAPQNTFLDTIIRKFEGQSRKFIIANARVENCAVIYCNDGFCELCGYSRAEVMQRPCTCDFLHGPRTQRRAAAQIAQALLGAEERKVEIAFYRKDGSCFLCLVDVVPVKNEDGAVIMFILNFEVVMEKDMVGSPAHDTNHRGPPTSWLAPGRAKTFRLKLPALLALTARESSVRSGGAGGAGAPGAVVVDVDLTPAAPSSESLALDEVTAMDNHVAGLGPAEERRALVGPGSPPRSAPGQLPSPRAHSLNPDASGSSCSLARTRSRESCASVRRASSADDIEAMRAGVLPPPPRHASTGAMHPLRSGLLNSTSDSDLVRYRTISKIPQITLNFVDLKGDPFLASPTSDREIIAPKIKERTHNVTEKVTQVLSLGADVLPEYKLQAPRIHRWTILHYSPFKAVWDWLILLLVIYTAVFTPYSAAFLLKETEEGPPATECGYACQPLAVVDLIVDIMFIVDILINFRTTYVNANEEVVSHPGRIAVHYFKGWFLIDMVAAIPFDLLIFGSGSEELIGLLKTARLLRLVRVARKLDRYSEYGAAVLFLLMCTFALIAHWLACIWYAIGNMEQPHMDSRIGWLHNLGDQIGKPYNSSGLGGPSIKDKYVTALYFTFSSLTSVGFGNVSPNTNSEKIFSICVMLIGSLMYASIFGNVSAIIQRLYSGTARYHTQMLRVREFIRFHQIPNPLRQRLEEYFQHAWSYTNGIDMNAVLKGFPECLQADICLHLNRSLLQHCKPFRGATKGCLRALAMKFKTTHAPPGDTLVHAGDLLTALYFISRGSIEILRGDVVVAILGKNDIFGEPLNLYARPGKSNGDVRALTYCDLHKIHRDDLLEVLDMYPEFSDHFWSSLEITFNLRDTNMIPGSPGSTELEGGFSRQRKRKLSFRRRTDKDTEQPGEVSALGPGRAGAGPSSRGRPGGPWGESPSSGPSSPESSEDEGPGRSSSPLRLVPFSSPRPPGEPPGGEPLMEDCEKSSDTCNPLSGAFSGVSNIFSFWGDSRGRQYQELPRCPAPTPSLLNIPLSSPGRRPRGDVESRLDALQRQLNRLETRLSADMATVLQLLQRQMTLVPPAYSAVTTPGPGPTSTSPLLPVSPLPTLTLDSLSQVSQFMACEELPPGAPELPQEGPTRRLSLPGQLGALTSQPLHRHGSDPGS
row,SMILES,"hERG current change (%, negative = inhibition) at 1uM"
1,C[C@]12CCC(O)CC1=CCC1C2CC[C@]2(C)/C(=N\NC(N)=S)CCC12 (stereo partly shown),-1.5%
2,COc1ccc(N(C)C(=O)CCS(=O)(=O)c2cccc3nonc23)c(OC)c1,8%
3,CCOC(=O)c1c(NC(=S)NC(=O)c2ccco2)sc2c1CCCC2,15.6%
4,CCOCCc1nnc(NC(=O)CS(=O)(=O)Cc2ccccc2)s1,11.1%
5,COc1ccc(CN2CCN(C(=O)c3ccco3)CC2)cc1,6.08%
6,Cc1c(Br)c(C(=O)N2CCc3ccccc32)nn1C,13.2%
7,Cc1ccc(CN2CCC(C(=O)NCCC(C)C)CC2)o1.O=C(O)C(=O)O,10%
8,Cc1cccc(N(C(=O)c2snc(C(N)=O)c2N)C(C(=O)NCC2CCCO2)c2cccs2)c1 (stereo not shown),4.9%
9,Cc1ccc(OCC(O)CN2CCN(CC(O)COc3ccc(C)cc3Cl)CC2)c(Cl)c1 (stereo not shown),-5.75%
10,c1ccc(-c2csc3ncnc(-n4cnc5ccccc54)c23)cc1,2.21%
11,CCCCCCCN1C(N(C)C)=NC[C@@H]1Cc1ccccc1,-69%
12,CSc1cccc(-n2cc(-c3ccc4c(c3)OCO4)[nH]c2=O)c1,2.39%
13,COc1ccc2nc(/C(C#N)=C\c3ccc(C(=O)O)cc3)[nH]c2c1,12.5%
14,CC1CCC(C(C)C)C(OCC(O)CNC(C)(C)C)C1.Cl (stereo not shown),14%
15,COc1ccc(N=Cc2c(O)n(-c3ccc(C)cc3)c(=O)[nH]c2=O)cc1,8.42%
16,COc1ccc(-n2cc(-c3ccccc3)[nH]c2=S)cc1,5%
17,CCOc1ncccc1C(=O)N(CC)CC(=O)NCc1ccc(Cl)cc1,8.83%
18,O=C(O)CSCc1cnn(-c2ccccc2)c1-n1cccc1,1.54%
19,Cc1ccc(NC(=O)CN(C)C(=O)c2ccc(-n3cncn3)c([N+](=O)[O-])c2)cc1,0.604%
20,COc1ccccc1CC(=O)NC1CCCCCC1,13.2%
21,O=C(CC1CCCCC1)N1CCCC(c2nc(-c3ccc(S(=O)(=O)N4CCCC4)cc3)no2)C1 (stereo not shown),3.86%
22,O=C(NCc1cccs1)C1CC(c2ccc(Cl)c(Cl)c2)=NO1 (stereo not shown),11.6%

row,SMILES,"hERG current change (%, negative = inhibition) at 1uM"
1,CCCCn1c(N)c(N(CCOC)C(=O)C2CCCN(C(=O)c3ccc(Cl)cc3)C2)c(=O)[nH]c1=O (stereo not shown),-7.09%
2,Cc1ccc(NC(=O)CCN2C(=O)c3ccccc3S2(=O)=O)cc1C,-3.09%
3,O=C(O)c1ccc(N/N=C/C=C/c2ccccc2)cc1,17.2%
4,O=C(COC(=O)Cc1n[nH]c(=O)c2ccccc12)Nc1c(Cl)cccc1C(F)(F)F,16.3%
5,COc1cccc(NC(=O)CCCCCn2nnc3ccccc3c2=O)c1,4.8%
6,COC(=O)CCCC1=CC2=CC(=O)C(C)(OC(=O)c3cccs3)C(=O)C2=CN1c1ccccc1 (stereo not shown),6.11%
7,CSC1=NCCN1C(=O)c1cccc(C(F)(F)F)c1,11.1%
8,CCCCCC(=O)Nc1cccc(C2=NOC3(C2)C[C@H](C(N)=O)N(C(=O)COc2ccc(Cl)cc2)C3)c1 (stereo partly shown),6.06%
9,COC(=O)c1c(NC(=O)C(C)C)sc2c1C(C(=O)OC)CC2 (stereo not shown),19.5%
10,COc1ccc(N2CC(C(=O)N[C@H](C(=O)NC3CCCC3)C(C)C)CC2=O)cc1 (stereo partly shown),13.8%
11,C=CCNC(=O)NC(=O)CN1C(=O)NC(c2ccccc2)(c2ccccc2)C1=O,-26.1%
12,O=C(CC(=O)N/N=C/c1ccc(F)cc1)N/N=C/c1ccc(F)cc1,12.3%
13,CNC(=O)c1sc(-c2cccs2)nc1C,15.2%
14,CC(NC(=O)CCn1c(=S)[nH]c2ccsc2c1=O)c1ccccc1 (stereo not shown),5.54%
15,O=c1[nH]cc(C(F)(F)F)cc1NS(=O)(=O)c1ccc([N+](=O)[O-])cc1,-5.38%
16,CCOc1ccccc1N1CC(C(=O)N2CCOCC2)CC1=O (stereo not shown),10.7%
17,COc1ccc(/C=C/CN2CCC(n3nccc3NC(=O)C3CCCC3)CC2)cc1,-92.1%
18,Cn1c(=O)[nH]c(=O)c2c1nc(N1CCCCCC1)n2CCOc1ccccc1,1.03%
19,CCn1nnc(NC(=O)c2c(OC)cccc2OC)n1,15%
20,CSC1=NCCN1C(=O)c1ccc(S(=O)(=O)N2CCCCC2)cc1,11.2%
21,C=CCOc1cccc(/C=N/NC(=O)CN(c2cc(Cl)ccc2OC)S(=O)(=O)c2ccc(C)c([N+](=O)[O-])c2)c1,18.4%
22,Cc1ccc(Nc2cc(=O)[nH]c(=O)[nH]2)cc1C,6.08%

row,SMILES,"hERG current change (%, negative = inhibition) at 1uM"
1,N#C/C(=C\c1cn(CCOc2ccccc2)c2ccccc12)C(=O)NCc1ccco1,4.03%
2,Cc1cccc(NC(=O)/C(C#N)=C/c2ccc(Sc3ccccc3)o2)c1C,8.67%
3,CCNC(=O)N1CCCC(C(=O)c2ccc3cc(OC)ccc3c2)C1 (stereo not shown),4.69%
4,CCOc1ccc(C(CCc2ccccc2)NC(=O)c2ccccc2F)cc1OCC (stereo not shown),11.8%
5,CCOC(=O)C1C(=O)C=C(N2CCOCC2)CC1c1cccc(OC)c1 (stereo not shown),18.3%
6,c1ccc(C(c2ccccc2)N2CCN(C(c3ccccn3)c3nnnn3C3CCCC3)CC2)cc1 (stereo not shown),8.57%
7,CCCCSc1n[nH]c(N)n1,14.6%
8,COc1cc2ccccc2cc1C(=O)N1CCCCC1,1.3%
9,Cc1cc(=O)cc(C)n1-c1ccc(F)cc1F,7.28%
10,Cc1ccc(/C=C2\SC(=S)N(CCCC(=O)Nc3ccc(O)cc3)C2=O)cc1,8.87%
11,Cc1ccc(-c2cc(C(F)(F)F)c(C#N)c(SCCC#N)n2)o1,5.56%
12,COc1ccc(Nc2nc(N)nc(CSC(=S)N3CCOCC3)n2)cc1,8.62%
13,CC(=O)Oc1cccc(NC(=O)c2ccc3c(c2)C(=O)N(CC(C)C)C3=O)c1,7.53%
14,CN(Cc1cnn(C)c1)C(=O)c1cc(COc2c(F)cccc2F)on1,14.7%
15,CCOC(=S)SCC(=O)Nc1nc(C)c(C)s1,2.1%
16,O=C(Cc1ccc(Cl)cc1)Nc1ccc(N2CCCC2)cc1,8.92%
17,OCCCNc1ncnc2c1[nH]c1ccccc12,14.4%
18,CCCCCNC(=O)c1cccc(S(=O)(=O)N2CC3(C)CC2CC(C)(C)C3)c1 (stereo not shown),10.6%
19,CC1(C)CC(=O)C(C=NCCc2ccc(O)cc2)=C(O)C1,10.2%
20,Cc1cc(=O)oc2cc(OCC(=O)N3CC[C@@]4(O)CCCC[C@H]4C3)ccc12,9.62%
21,CCOc1ccc(N=C2SCCCN2C(=O)c2c(CC)noc2C)cc1,8.16%
22,Cc1oc(S(=O)(=O)N2CCCCC2)cc1NC(=O)Nc1ccc(Cl)cc1,1.55%

row,SMILES,"hERG current change (%, negative = inhibition) at 1uM"
1,COc1ccc(NC(=O)CCN2C(=O)/C(=C/c3ccc4c(c3)OCO4)SC2=S)cc1,5.41%
2,COc1ccccc1C(=O)Nc1ccnn1C1CCN(C(=O)c2cnsn2)CC1,-23.8%
3,CC(=O)c1c(C)[nH]c(C(=O)OCC(=O)NCCC(C)C)c1C,1.69%
4,CCN(CC)S(=O)(=O)c1ccc(-c2nnc(SCC(=O)N3c4ccccc4CC3C)o2)cc1 (stereo not shown),8.5%
5,Cc1ccc(/C=N/NC(=O)C2COc3ccccc3O2)s1 (stereo not shown),18%
6,Cc1cc(-c2nnc(CCC(=O)NCC(C)c3ccccc3)o2)no1 (stereo not shown),14.2%
7,CCN(CC)C(=O)c1sc(NC(=O)Cc2cccs2)c(C#N)c1C,6%
8,COCCCNC(=O)C1CC(=O)N(c2ccc(C)cc2)C1 (stereo not shown),23.7%
9,N/C(Cc1ccc(Cl)cc1)=N\OC(=O)c1ccccc1,2.79%
10,CC1CCCC(C)N1CCCNC(=O)CN1C(=O)c2cccnc2Oc2ccc(Cl)cc21 (stereo not shown),6.15%
11,Cc1ccccc1C(=O)NNC(=O)c1cc(N)cc([N+](=O)[O-])c1,12.5%
12,COc1ccc(/C=C(/NC(=O)c2cccs2)C(=O)NC(C)(C)C)cc1OC,11.7%
13,COc1cccc(-n2cnc3sc(C)c(C)c3c2=O)c1,-3.5%
14,COC(=O)C1C(=O)NC(SC)=C(C#N)C1c1ccccc1F (stereo not shown),5.08%
15,O=[N+]([O-])c1ccc(N(CC2CO2)S(=O)(=O)c2ccccc2)cc1 (stereo not shown),5.42%
16,CCc1nnc(NC(=O)c2cccnc2SC)s1,2.02%
17,COC(=O)c1c(N)nc(C)n1-c1ccc(OC)cc1,16.2%
18,COc1ccccc1N1CCN(C(=O)CCn2c(=O)[nH]c3ccsc3c2=O)CC1,9.17%
19,O=C1c2ccccc2NC(c2ccccc2O)N1O (stereo not shown),16%
20,CC(NC(=S)Nc1c(Br)cccc1OC(F)F)C(C)(C)C (stereo not shown),4.69%
21,COc1ccc(CC2c3cc(OC)c(OC)cc3CC[N+]2(C)CCC(=O)OCCCCCOC(=O)CC[N+]2(C)CCc3cc(OC)c(OC)cc3C2Cc2ccc(OC)c(OC)c2)cc1OC.O=S(=O)([O-])c1ccccc1 (stereo not shown),11.8%
22,CC1CC(C)CN(CCCNC(=O)c2ccc3nc(N4CCCCC4)sc3c2)C1 (stereo not shown),-12.1%

# Reference: article PMC4336329 (PLoS ONE, 2015)
